# Results: PubChem BioAssay AID686979 (National Center for Advancing Translational Sciences (NCATS), 2013)
# Screen size: about 420,000 compounds; about 50,000 (12%) were called active. Inconclusive means that the source gave no clear call. Such entries were picked first, then a sample of the others. The call rests on the fitted dose curve; in most records, active means well fitted inhibition curve with a large enough effect; inconclusive means small, poorly fitted or top-dose-only effect; inactive means flat fitted curve, though single readings scatter. Potencies of inconclusive entries are left out as doubtful fits.
# Experiment: qHTS for Inhibitors of human tyrosyl-DNA phosphodiesterase 1 (TDP1): qHTS in cells in presence of CPT; further: nearly all actives have a fitted effect of over 55% in size
# Details: chicken DT40 Tdp1-/-;hTDP1 cells + 20 nM CPT, ATP luminescence, 48 h; activity change, negative = growth inhibition: at 46.2 µM (top of the series) unless noted
# In short: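 Cell growth measured by CellTiter-Glo luminescence after a minimum 48 h, 37 C compound exposure with 20 nM CPT in Tdp1-knockout DT40 cells stably expressing hTDP1, seeded 400/well; qHTS titration format.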
# On the % scale 0 is the no-effect control and ±100 the full control effect; potency means the concentration at half of the fitted maximal effect; tags describe the fitted curve by direction and shape.
SMILES,Potency,"activity change, negative = growth inhibition"
Cc1ccn(CCC(=O)NC2CCCc3c2cnn3-c2cccc(C)c2C)n1 (stereo not drawn),"inconclusive [inhibitor, single point]",–
COc1cccc(OCc2cc(C(=O)N3CCN(C4CCCC4)CC3)no2)c1,–,inactive: -6.7%
CN(CC(=O)Nc1cccc(S(=O)(=O)NC2=NCCCCC2)c1)Cc1ccc(C(C)(C)C)cc1,active: 29.1 µM,–
CCCC(C)c1nnc(NC(=O)C2CC(=O)N(CCc3ccc(F)cc3)C2)s1 (stereo not drawn),"inconclusive [inhibitor, single point]",–
O=C(CNC(=O)c1ccccc1Br)N/N=C/c1cc(Br)ccc1O,active: 8.2 µM,–
CCc1nc2ccccc2c(C(=O)OCCN2C(=O)c3ccccc3C2=O)c1C,"inconclusive [inhibitor, single point]",–
CC(OC(=O)C1CC1)C(=O)Nc1ccc([N+](=O)[O-])cc1Cl (stereo not drawn),–,inactive: -3.96%
COC(=O)c1ccc(N2CCN(C)CC2)c(NC(=O)COc2ccc(OC)cc2)c1,active: 20.6 µM,–
Cc1ccc(C)c(C(O)c2ncc(-c3cccc(C(F)(F)F)c3)[nH]2)c1 (stereo not drawn),"inconclusive [inhibitor, single point]",–
C=CCn1c(C)cc(C(=O)COC(=O)c2ccc3c(c2)NC(=O)CS3)c1C,"inconclusive [inhibitor, single point]",–
C[C@H](CO)N1C[C@H](C)[C@@H](CN(C)C(=O)Nc2ccc(C(F)(F)F)cc2)Oc2ccc(NC(=O)Nc3ccc4c(c3)OCO4)cc2C1=O,"inconclusive [inhibitor, single point]",–
CC1(C)[C@H]2CC=C(CN3CCC(N4CCC(C(=O)N5CCCC5)CC4)CC3)[C@@H]1C2,"inconclusive [inhibitor, single point]",–
COc1ccc(OC)c(CNC(=O)c2ccc3nc(C(C)C)oc3c2)c1,"inconclusive [inhibitor, single point]",–
CC[C@H](C)NC(=O)c1ccc(Cn2c(=S)[nH]c3c([nH]c4ccc(OC)cc43)c2=O)cc1,"inconclusive [inhibitor, single point]",–
COc1ccc(C=O)cc1OS(=O)(=O)c1ccc(NC(C)=O)cc1,"inconclusive [inhibitor, single point]",–
Cc1c(C(=O)N2CCOCC2)sc2nc(-c3ccccc3)cn12,–,inactive: 0.739%
O=C(Nc1cccc(-c2nc3ncccc3o2)c1)c1sc2cc(Cl)ccc2c1Cl,"inconclusive [inhibitor, single point]",–
Cc1sc(NC(=O)/C=C/c2ccc3c(c2)OCO3)nc1-c1ccccc1,active: 14.6 µM,–
